The whole screen tested about 45,000 compounds, of which about 65 (0.1%) were called active. Calls come from the whole dose curve; as a rule, active = well fitted activation curve with a large enough effect; inconclusive = small, poorly fitted or top-dose-only effect; inactive = no such curve, though single readings can be large or run the other way. The list shows a part of the results.
target: Galactocerebrosidase (Homo sapiens) (UniProt P54803); assay: A Novel Cell-Based Assay to Identify Small Molecules for B -Galactocerebrosidase; conditions: 145M-Twi-hGALC-G270D cells (Twitcher mouse brain line with human GALC G270D), HMU-beta-Gal fluorescence, 48 h; series mostly up to 57.5 µM; activation: at the top concentration; note: nearly all actives have a fitted effect of over 65% in size; for activation: 0% is about no effect
Procedure, shortened: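 Fluorescence readout: HMU-β-gal cleavage by mutant GALC (0.1 mM final, citrate/phosphate pH 5.2 with 1 mg/mL taurocholate), stopped with carbonate/bicarbonate plus Triton X-100. Cells: murine Twitcher 145M-Twi expressing human G270D GALC; qHTS for activators.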
Potency is the fitted concentration of half-maximal effect.

Chain of UniProt P54803 (P54803 whole entry, looked up): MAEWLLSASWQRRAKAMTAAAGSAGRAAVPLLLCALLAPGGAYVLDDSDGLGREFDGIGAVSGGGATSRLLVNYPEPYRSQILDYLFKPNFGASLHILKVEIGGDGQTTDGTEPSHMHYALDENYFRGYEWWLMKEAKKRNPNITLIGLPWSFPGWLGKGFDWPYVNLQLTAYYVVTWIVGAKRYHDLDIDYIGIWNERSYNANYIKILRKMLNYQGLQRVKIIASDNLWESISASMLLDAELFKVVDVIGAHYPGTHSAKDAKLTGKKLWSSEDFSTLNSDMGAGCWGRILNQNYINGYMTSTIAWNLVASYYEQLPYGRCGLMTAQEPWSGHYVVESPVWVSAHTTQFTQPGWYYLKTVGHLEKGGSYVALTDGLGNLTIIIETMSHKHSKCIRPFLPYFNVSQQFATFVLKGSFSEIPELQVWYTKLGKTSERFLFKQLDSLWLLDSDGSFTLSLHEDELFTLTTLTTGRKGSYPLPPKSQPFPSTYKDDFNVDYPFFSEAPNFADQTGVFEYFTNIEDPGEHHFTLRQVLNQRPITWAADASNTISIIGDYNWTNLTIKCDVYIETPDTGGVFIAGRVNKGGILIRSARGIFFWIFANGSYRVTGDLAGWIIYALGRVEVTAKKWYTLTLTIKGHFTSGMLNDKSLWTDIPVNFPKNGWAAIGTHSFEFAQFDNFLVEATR

SMILES | activation | Potency
O=C1CCSC2(C(=O)N(Cc3ccc(F)cc3)c3ccccc32)N1c1cccc(F)c1 (centres undefined) | inactive: -1.52% | –
O=C(Cn1cc(C(=O)c2cccs2)c2ccccc21)Nc1ccc(Br)cc1 | inactive: -33.3% | –
CCS(=O)(=O)c1nc(S(=O)(=O)c2ccc(C)cc2)c(NC)s1 | inactive: -18.9% | –
Cc1cccc(C(=O)N2CCc3cc(CNS(=O)(=O)c4ccc(F)c(Cl)c4)ccc32)c1 | inactive: -3.07% | –
CCc1ccccc1NC(=O)Cn1ccn(Cc2ccccc2)c(=O)c1=O | inactive: -3.2% | –
COc1ccc(NC(=O)CCc2nnc3n(Cc4ccc(C)cc4)c(=O)c4ccccc4n23)cc1 | inactive: -5.84% | –
COc1cccc(CNCCCSc2nnnn2C)c1OC | inactive: -13.6% | –
CC1CCCCN1C(=O)CCS(=O)(=O)c1cc2c(cc1Cl)NC(=O)CO2 (centres undefined) | inactive: -12% | –
CC(=O)Nc1c(C)nn(-c2ccccc2)c1N1CCC(C(=O)Nc2ccccc2F)CC1 | inactive: -6.18% | –
COc1ccc(NS(=O)(=O)c2ccc3[nH]c4c(c3c2)CCCCC4)cc1 | inactive: -15.2% | –
COc1ccc(NC(=O)c2ccco2)cc1NC(=O)c1c(OC)cccc1OC | inactive: -8.91% | –
CC(=O)c1ccc(N2CCN(C(=O)Nc3ccc(C(C)C)cc3)CC2)cc1 | inactive: 13.9% | –
O=C(Nc1ccccc1)N(Cc1cccc(Cl)c1)c1ccccn1 | inactive: -7.96% | –
COc1ccc(CCNC(=O)c2ccc3c(c2)ncn3-c2ccc(C(C)C)cc2)cc1OC | inactive: -15.9% | –
CC(C)c1ccc2occ(CC(=O)N(Cc3ccc(F)cc3)C3CCS(=O)(=O)C3)c2c1 (centres undefined) | inactive: -0.926% | –
Cn1c2ccccc2c2cnn(CC(=O)NCCCN3CCN(c4ccccc4F)CC3)c(=O)c21 | inactive: -22.1% | –
CCCCN1C[C@H](O)[C@@H](O)[C@H](O)[C@H]1CO | inactive: -14.2% | –
CCOC(=O)c1c(S(=O)(=O)N2CCC(C(=O)Nc3ccc(F)cc3F)CC2)c(C)n(C)c1C | inactive: -18.9% | –
COc1cccc(CCc2ccccc2OCC(CN(C)C)OC(=O)CCC(=O)O)c1 (centres undefined) | inactive: -19% | –
COc1ccc(CNC(=O)Cc2c(C)c3cc4c(C)coc4c(C)c3oc2=O)cc1OC | inactive: -6.59% | –
COc1ccc(Cn2c(CO)cnc2SCc2ccccc2C)cc1 | inactive: -3.59% | –
CCOc1ccc(CN2C(=O)c3ccccc3C2C(=O)NCCc2ccc(OC)c(OC)c2)cc1 (centres undefined) | inactive: -9.62% | –
COc1ccccc1NC(=O)C1=C(C)Nc2ncnn2C1c1cccn1C (centres undefined) | inactive: -12.7% | –
Cc1ccc(C)c(NC(=O)C2CCN(c3cc(C)nc4c(-c5ccc(Cl)cc5)c(C)nn34)CC2)c1 | inactive: -16.1% | –
COc1ccc(-n2cc(C(=O)Oc3cc(C)cc(C)c3)c3ccccc3c2=O)cc1 | inactive: -0.538% | –

SMILES | activation | Potency
COc1cccc(NC(=O)Cn2cc(C(=O)c3ccco3)c3ccccc32)c1 | inactive: -18.2% | –
CCOc1ccc(CNS(=O)(=O)c2ccc3c(c2)CCCN3C(C)=O)cc1 | inactive: -11.7% | –
CC(C)C(=O)Nc1ccc2nc(SCC(=O)N3CCc4ccccc43)sc2c1 | inactive: -1.06% | –
COc1ccc(-c2csc3ncnc(Nc4cc(OC)cc(OC)c4)c23)cc1 | inactive: -19.2% | –
c1ccc2c(c1)CCCC2C1=NCCN1 (centres undefined) | inactive: -4.97% | –
Cc1ccc(-n2c(SCC(=O)c3ccccc3)nc3c([nH]c4ccccc43)c2=O)cc1 | inactive: 3.45% | –
COc1ccccc1CC(=O)Nc1ccc2nc(Nc3cccc(Cl)c3)cc(C)c2c1 | inactive: 0.749% | –
CCC(=O)N1CCc2cc(S(=O)(=O)Nc3cc(C)ccc3OC)ccc21 | inactive: -20.2% | –
O=C(CSc1ncc(S(=O)(=O)c2ccc(Br)cc2)c(=O)[nH]1)Nc1ccc2c(c1)OCCO2 | inactive: 0.29% | –
CCCCC(Sc1nc2cc3c(cc2c(=O)n1CCCC(=O)NCc1ccc2c(c1)OCO2)OCO3)C(=O)OCC (centres undefined) | inactive: -29.3% | –
COc1cccc(NC(=O)Cn2c(=O)n(CCCCC(=O)NCc3ccccc3Cl)c(=O)c3ccccc32)c1 | inactive: 1.82% | –
CCOc1ccccc1N1CCN(S(=O)(=O)c2ccc(C3CCCCC3)cc2)CC1 | inactive: -13.5% | –
CC1CCN(C(=O)CSc2nc3ccccc3nc2Cc2ccccc2)CC1 | inactive: -18.2% | –
CC(C)c1ccc(NC(=O)Cn2cc(S(=O)(=O)Cc3ccccc3Cl)c3ccccc32)cc1 | inactive: -32.9% | –
Cc1cc(C)cc(NC(=O)c2cc(S(=O)(=O)N3CCc4ccccc43)cn2C)c1 | inactive: -7.19% | –
O=C(Nc1ccc2oc(-c3cccc(F)c3)nc2c1)c1ccc2ccccc2c1 | inactive: -10.1% | –
COc1ccccc1CNC(=O)c1ccc2c(c1)N(Cc1c(F)cccc1Cl)C(=O)CS2 | inactive: 7.9% | –
Oc1ccc(NCc2ccc(OCc3ccccc3)cc2)cc1 | inactive: 4.82% | –
Cc1cc(=O)oc2cc(OCC(=O)Nc3ccc(O)c(C(=O)O)c3)ccc12 | inactive: -6.71% | –
CCOc1ccc(CC(=O)N2CCc3cc(OC)c(OC)cc3C2COc2ccc3c(C)cc(=O)oc3c2)cc1 (centres undefined) | inactive: -11% | –
CCCn1cnc2cc(NCc3ccc(OC)cc3OC)ccc21 | inactive: -13% | –
Cc1cccc(Cn2c(SCc3ccc(C(=O)NC4CCCC4)cc3)nc3ccncc32)c1 | inactive: 0.915% | –
CCN(CC)S(=O)(=O)c1ccc2c(c1)N(CC(=O)NCCCN1CCN(c3cc(Cl)ccc3C)CC1)C(=O)CO2 | inactive: -1.42% | –
COc1ccc(CNC(=O)Cc2c(C)c3c(cc(C)c4c(C)c(C)oc43)oc2=O)cc1OC | inactive: -14.2% | –
Cc1cccc(-c2noc(CNC(=O)c3ccccc3Br)n2)c1 | inactive: -12.3% | –

SMILES | activation | Potency
Cc1ccc(NC(=O)c2sc(-n3nc(C)c(Cc4ccc5c(c4)OCO5)c3C)nc2C)cc1Cl | inactive: -3.39% | –
CC(C)CNS(=O)(=O)c1ccc(N2CCCCS2(=O)=O)cc1 | inactive: -0.589% | –
CCOc1ccc(NC(=O)CCc2c(C)nc3cc(-c4ccc(Cl)cc4)nn3c2C)cc1 | inactive: -17.2% | –
CCCCCn1c(=O)[nH]c2cc(C(=O)NCc3ccccc3)ccc2c1=O | inactive: -15% | –
Cc1ccc(CNC(=O)CS(=O)(=O)Cc2nc(-c3ccccc3C)oc2C)cc1 | inactive: -2.61% | –
CCCOc1ccc(NC(=O)C(=O)NCCCN2CCOCC2)cc1 | inactive: -10.4% | –
Cc1ccc(CNC(=O)c2cc3c(s2)-c2c(C)cccc2OC3)cc1 | inactive: -9.34% | –
CCOC(=O)c1c(NC(C)=O)c2c3c(sc2n1Cc1nc(-c2ccccc2Cl)oc1C)CCCC3 | inactive: -17.5% | –
Cc1cccc(NC(=O)C2CCN(c3cnccn3)CC2)c1 | inactive: -10.2% | –
COc1ccc(Cn2c(=O)c3ccccc3n3c(-c4cccc(OC)c4OC)nnc23)cc1 | inactive: -16.4% | –
COc1ccc(CC(=O)Nc2ccc3nc(N4CCCCC4)cc(C)c3c2)cc1 | inactive: -18% | –
CC1CCN(S(=O)(=O)c2ccc3c(c2)oc(=O)n3CC(=O)O)CC1 | inactive: -12.6% | –
CCOc1ncc(F)c(=O)[nH]1 | inactive: -20.2% | –
CCC(=O)N1CCc2cc(Br)cc(S(=O)(=O)CCC(=O)Nc3cccc(C)c3C)c21 | inactive: -6.83% | –
CCOCCCNC(=O)c1ccc(-n2c(-c3ccccc3)cc3c2CCCCC3)cc1 | inactive: 5.24% | –
COc1ccc(CNCc2c(C(=O)O)n(Cc3ccc(F)cc3)c3cc(C)ccc23)cc1OC | inactive: 2.69% | –
CC(C)OC(=O)C(C(=O)OC(C)C)=C1SC=CS1 | inactive: -19.1% | –
Cc1ncc([N+](=O)[O-])n1C | inactive: -15.5% | –
COc1ccc2c(c1)c1c(c(=O)n(Cc3ccccc3)c(=O)n1CC(=O)NCc1ccccc1)n2C | inactive: 0.5% | –
Cc1cc(C)cc(NC(=O)N2CCN(c3cc(-c4noc(C)n4)ccc3C)CC2)c1 | inactive: -14.5% | –
CCc1nc(C)cn1S(=O)(=O)c1ccc(Cl)c(Cl)c1OC | inactive: -26.6% | –
N#Cc1ccccc1Cn1cnc2nc3c(cc2c1=O)CCCC3 | inactive: -23.5% | –
CCNC(=O)c1c(NC(=O)c2nc(S(=O)(=O)CC)ncc2Cl)sc2c1CCCC2 | inactive: -14.2% | –
COc1ccccc1NC(=O)c1sc2nc3c(cc2c1N)CN(Cc1ccccc1)CC3 | inactive: -14.8% | –
O=C(CSc1nc(=O)[nH]c2c1CCCC2)NCc1ccc(F)cc1 | inactive: -17.2% | –

SMILES | activation | Potency
COc1ccc(CC(=O)NCCS(=O)(=O)N2CCN(c3ccc(F)cc3)CC2)cc1OC | inactive: -11.2% | –
COCCn1c(C)cc(O)c(C(c2ccc(F)cc2)N2CCN(c3ccccc3)CC2)c1=O (centres undefined) | inactive: -8.32% | –
CCOC(=O)c1c(C)c(-c2ccccc2)n(CC(=O)NCCc2cccc(C)c2)c1C | inactive: -9.2% | –
Cc1nnc2c(N3CCN(c4ccccc4F)CC3)nc3ccc(C(=O)c4ccccc4)cc3n12 | inactive: -6.49% | –
CCCOc1ccc(C(=O)Nc2ccc(NC(=O)c3ccccc3)c(C)c2)cc1 | inactive: -14.4% | –
Cc1cccc(CC(=O)NCc2nc3cccnc3n2Cc2ccc(F)cc2)c1 | inactive: -19.3% | –
CCc1cc(=O)[nH]c(SCc2nc(-c3ccccc3)no2)n1 | inactive: -25.1% | –
Cc1cccc(C(=O)NC2=NC(c3ccc(Cl)cc3)CC(=O)N2)c1 (centres undefined) | inactive: -17.4% | –
CCOC(=O)C(C#N)=C(c1ccccc1)c1ccccc1 | inactive: -4.32% | –
COc1ccc(CNc2nc(SCc3ccccc3Cl)nc3ccccc23)cc1 | inactive: 17.5% | –
CSc1ccc(CCNC(=O)c2cc3cc(S(=O)(=O)N4CCCCC4)ccc3n2C)cc1 | inactive: 3.4% | –
COc1ccc(N2CC(NC(=O)C3CCCC3)CC2=O)cc1OC (centres undefined) | inactive: 28.8% | –
CCOC(=O)C1CCC(CN(Cc2ccc(OC)cc2)S(=O)(=O)c2ccc(F)c(C(=O)Nc3c(C)cccc3C)c2)CC1 (centres undefined) | inactive: -12.8% | –
O=C(Nc1cccc(Cl)c1)C1CCCN(c2ncnc3c2nc2n3CCCCC2)C1 (centres undefined) | inactive: 5.05% | –
O=C(Cn1cnc2c(nc3n2CCCCC3)c1=O)Nc1ccc(F)c(Cl)c1 | inactive: -9.8% | –
Cc1cc(F)ccc1NC(=O)CS(=O)(=O)c1cccc2nsnc12 | inactive: -20.6% | –
Cc1ccccc1Nc1c(-c2ccccc2)nc2cccc(C)n12 | inactive: -11.2% | –
CS(=O)(=O)Nc1ccccc1C(=O)OCc1cc(=O)n2nc(C3CCCCC3)sc2n1 | inactive: -13.4% | –
CCc1ccc(C(=O)c2cn(CC(=O)Nc3cc(F)ccc3F)c3nc(C)ccc3c2=O)cc1 | – | active: 3.98 µM
COc1ccc(CCNC(=O)c2cn(C)c3ccc(S(=O)(=O)N(C)C)cc3c2=O)cc1OC | inactive: -9.96% | –
Cn1nc(C(=O)N2CCN(c3ccc(F)cc3)CC2)c2c1-c1ccccc1SC2 | inactive: -13.3% | –
CC1CCCN(S(=O)(=O)c2cc3c4c(c2)CC(=O)N4CCC3)C1 (centres undefined) | inactive: -20.9% | –
COc1ccc2c(c1)sc1ncc(C(=O)NCc3cccc(C)c3)c(=O)n12 | inactive: -7.43% | –
CCN(C(=O)c1cn(CC(C)C)c(=O)c2cc(OC)c(OC)cc12)c1cc(OC)ccc1OC | inactive: 14.3% | –

Source: PubChem BioAssay AID1159614 (National Center for Advancing Translational Sciences (NCATS), 2016)
